Results reported in PubChem BioAssay AID504832 (National Center for Advancing Translational Sciences (NCATS), 2011).
The whole screen tested about 310,000 compounds, of which about 18,000 (5.8%) were called active. Inconclusive results, whose numbers are uncertain, are shown with a selection of clear calls. Calls follow the shape of the dose curve; as a rule, active = well fitted inhibition curve with a large enough effect; inconclusive = small, poorly fitted or top-dose-only effect, or another doubt; inactive = no such curve, though single readings can be large or run the other way. Potencies of inconclusive entries are left out as doubtful fits.

Assay: Primary qHTS for delayed death inhibitors of the malarial parasite plastid, 48 hour incubation
Conditions: P. falciparum luciferase growth in erythrocytes; series mostly up to 28.7 µM
In short: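 Luminescence readout; reporter = integrated firefly luciferase in P. falciparum. RBC culture at 2% hematocrit, 0.1% parasitemia final, 37 C/5% CO2; decreased signal taken as growth inhibition.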
% is scaled to controls: 0 for no effect and ±100 for the full control effect; potency is read from the fitted curve at half-maximal effect; tags tell the direction and shape of the fitted curve.

Row | SMILES | Potency | activity change, negative = inhibition
1 | O=C(Cn1nnc2ccccc21)OCC(=O)c1ccc(Cl)c(Cl)c1 | inconclusive [inhibitor, single point] | –
2 | C=CCSc1nc2sc3c(c2c(=O)n1-c1ccccc1)CCN(C)C3 | inconclusive [inhibitor, full curve] | –
3 | COc1cccc(CNC(=O)C2CCN(C(=O)N3CC(C)Oc4ccccc43)CC2)c1 (stereo not drawn) | inconclusive [inhibitor, partial curve, poor fit] | –
4 | COC(=O)c1ccc(OCC(=O)N2CCCc3ccccc32)cc1 | inactive | –
5 | O=c1c2ccccc2n2c(-c3cccc(Cl)c3)nnc2n1Cc1ccccc1 | inactive | –
6 | O=C(Nc1ccc(C2=NCCN2)cc1)c1ccc(C(=O)Nc2ccc(C3=NCCN3)cc2)c(Cl)c1 | active: 0.522 µM | –
7 | COc1cc(-c2cc(-c3ccc(O)cc3)nc(N)c2C#N)ccc1O | inconclusive [inhibitor, single point] | –
8 | CCCC(=O)N1CCN(c2ccc(NC(=O)c3ccc([N+](=O)[O-])o3)cc2Cl)CC1 | inconclusive [inhibitor, partial curve] | –
9 | Cc1nc(N2CCCCC2C)c2c(C)c(C(=O)Nc3ccccc3C(F)(F)F)sc2n1 (stereo not drawn) | inconclusive [inhibitor, full curve, poor fit] | –
10 | NC(=O)[C@@H]1CC2(CC(c3cccc(NC(=O)[C@H]4CCC(=O)N4)c3)=NO2)CN1C(=O)COc1ccc(Cl)cc1 (stereo partly drawn) | inactive | –
11 | Cc1onc(-c2c(F)cccc2Cl)c1C(=O)Nc1ccc(Cl)c(S(=O)(=O)N(C)C)c1 | inconclusive [inhibitor, single point] | –
12 | Cc1cc(Br)ccc1NC(=O)c1ccccc1-c1ccccc1 | inconclusive [inhibitor, single point] | –
13 | CCC1Oc2ccccc2N(CC(=O)NCc2ccco2)C1=O (stereo not drawn) | inactive | –
14 | O=C(NC1CCCN(Cc2ccc(Cl)cc2)C1)c1cccc(F)c1 (stereo not drawn) | inactive | –
15 | CCc1noc(C)c1C(=O)Nc1ccc(S(=O)(=O)N2CCCCC2)cc1 | inconclusive [inhibitor, partial curve, poor fit] | –
16 | CN(Cc1ccco1)C(=O)CN1C(=O)NC(c2ccccc2)(c2ccccc2)C1=O | inconclusive [inhibitor, partial curve] | –
17 | Cc1cc(=O)[nH]c(Nc2cccc(Cl)c2C)n1 | – | inactive: -10.2% [at 0.00184 µM]
18 | CC(C)(C)NC(=O)c1ccccc1-c1nc2ccccc2s1 | inconclusive [inhibitor, partial curve, poor fit] | –
19 | O=C(N/N=C/c1cccc(OCc2ccccc2)c1)c1cccs1 | inconclusive [inhibitor, partial curve, poor fit] | –
20 | O=C(Nc1ccc2c(c1)OCO2)C1CCCCC1 | inactive | –
21 | COc1ccc(-c2c(-c3ccccc3OC)oc3ccccc23)cn1 | inconclusive [inhibitor, partial curve, poor fit] | –
22 | Cc1ccc(S(=O)(=O)NCCSCc2ccccc2)cc1 | inconclusive [inhibitor, single point] | –

Row | SMILES | Potency | activity change, negative = inhibition
23 | CC(C)Oc1ccccc1/C=N/Nc1ccccc1[N+](=O)[O-] | inconclusive [inhibitor, single point] | –
24 | CCN(CC)C1CCN(C(=O)c2ccc3nc(Cc4ccc(OC)cc4)oc3c2)C1 (stereo not drawn) | inconclusive [inhibitor, single point] | –
25 | Cc1ccc(C)c(NS(=O)(=O)c2cc(C(=O)NCCC3=CCCCC3)ccc2C)c1 | inconclusive [inhibitor, single point] | –
26 | Cc1ccc(C(=O)N2CCN(S(=O)(=O)c3sc(C(=O)O)c(C)c3C(=O)O)CC2)s1 | inactive | –
27 | COc1ccc(/C=C2\SC(N3CCCCC3)=NC2=O)cc1 | inconclusive [inhibitor, partial curve] | –
28 | Cc1cc(NC(=O)c2ccc3[nH]c(C)c(C)c3c2)ccn1 | active: 2.62 µM | –
29 | CC(=O)NC(c1ccc(C)cc1)c1cc(Cl)c2cccnc2c1O (stereo not drawn) | inconclusive [inhibitor, partial curve, poor fit] | –
30 | CC(=O)c1ccc(NC(=S)NCCCn2ccnc2)cc1 | inconclusive [inhibitor, partial curve] | –
31 | COc1cc(/C=C/C(=O)OCc2csc(CC(=O)Nc3ccc(C)cc3)n2)ccc1OCC#N | inconclusive [inhibitor, single point] | –
32 | CC(C)c1ccc(NC2CCCN(C(=O)c3ccncc3)C2)cc1 (stereo not drawn) | active: 5.86 µM | –
33 | Cc1ccc(NC(=O)c2cccc(S(=O)(=O)N3CCN(c4ccc(F)cc4)CC3)c2)nc1 | inconclusive [inhibitor, single point] | –
34 | CCOC(=O)C1=C(C)N=C2c3ccccc3C(=O)C2C1c1ccccc1 (stereo not drawn) | inconclusive [inhibitor, partial curve, poor fit] | –
35 | Cc1ccc(/C=C/C(=O)Nc2cc(C)on2)cc1 | inconclusive [inhibitor, single point] | –
36 | CC(C)n1nc(C(=O)Nc2nnc(SCc3c(Cl)cccc3Cl)s2)c2ccccc2c1=O | inconclusive [inhibitor, single point] | –
37 | CN1CCN(c2ccc([N+](=O)[O-])cc2C(=O)c2ccccc2)CC1 | inconclusive [inhibitor, partial curve, poor fit] | –
38 | C/C(=N\NC(=O)C(C)n1nc(C)c([N+](=O)[O-])c1C)c1ccccc1O (stereo not drawn) | active: 9.28 µM | –
39 | Cc1ccc(NC2CCCN(C(=O)CN3C(=O)c4ccccc4C3=O)C2)cc1C (stereo not drawn) | inconclusive [inhibitor, single point] | –
40 | Cc1ccccc1CN1CCN(Cc2cc3ccccc3o2)CC1CCO (stereo not drawn) | inconclusive [inhibitor, partial curve, poor fit] | –
41 | S=c1[nH]c2cc3ccccc3cc2[nH]1 | inactive | –
42 | Cc1cccc(CCNS(=O)(=O)c2cc3c(cc2C)NC(=O)CO3)c1 | inactive | –
43 | O=C(/C=C\c1ccco1)Nc1ccc(N2CCN(C(=O)c3ccccc3)CC2)cc1 | inconclusive [inhibitor, single point] | –
